Among all 310,000 compounds or so, about 14,000 (4.5%) showed an effect of 50% or more. Effects have a minus sign here. Some of the results follow.
Target: human ether-à-go-go-related gene (hERG) potassium channel (human, UniProt Q12809)
Test: primary screen, population patch clamp on CHO cells stably expressing hERG
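Also: peak tail current of the secondary pulse compared with the same well before compound.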

Sequence of human ether-à-go-go-related gene (hERG) potassium channel (Q12809 whole entry, looked up): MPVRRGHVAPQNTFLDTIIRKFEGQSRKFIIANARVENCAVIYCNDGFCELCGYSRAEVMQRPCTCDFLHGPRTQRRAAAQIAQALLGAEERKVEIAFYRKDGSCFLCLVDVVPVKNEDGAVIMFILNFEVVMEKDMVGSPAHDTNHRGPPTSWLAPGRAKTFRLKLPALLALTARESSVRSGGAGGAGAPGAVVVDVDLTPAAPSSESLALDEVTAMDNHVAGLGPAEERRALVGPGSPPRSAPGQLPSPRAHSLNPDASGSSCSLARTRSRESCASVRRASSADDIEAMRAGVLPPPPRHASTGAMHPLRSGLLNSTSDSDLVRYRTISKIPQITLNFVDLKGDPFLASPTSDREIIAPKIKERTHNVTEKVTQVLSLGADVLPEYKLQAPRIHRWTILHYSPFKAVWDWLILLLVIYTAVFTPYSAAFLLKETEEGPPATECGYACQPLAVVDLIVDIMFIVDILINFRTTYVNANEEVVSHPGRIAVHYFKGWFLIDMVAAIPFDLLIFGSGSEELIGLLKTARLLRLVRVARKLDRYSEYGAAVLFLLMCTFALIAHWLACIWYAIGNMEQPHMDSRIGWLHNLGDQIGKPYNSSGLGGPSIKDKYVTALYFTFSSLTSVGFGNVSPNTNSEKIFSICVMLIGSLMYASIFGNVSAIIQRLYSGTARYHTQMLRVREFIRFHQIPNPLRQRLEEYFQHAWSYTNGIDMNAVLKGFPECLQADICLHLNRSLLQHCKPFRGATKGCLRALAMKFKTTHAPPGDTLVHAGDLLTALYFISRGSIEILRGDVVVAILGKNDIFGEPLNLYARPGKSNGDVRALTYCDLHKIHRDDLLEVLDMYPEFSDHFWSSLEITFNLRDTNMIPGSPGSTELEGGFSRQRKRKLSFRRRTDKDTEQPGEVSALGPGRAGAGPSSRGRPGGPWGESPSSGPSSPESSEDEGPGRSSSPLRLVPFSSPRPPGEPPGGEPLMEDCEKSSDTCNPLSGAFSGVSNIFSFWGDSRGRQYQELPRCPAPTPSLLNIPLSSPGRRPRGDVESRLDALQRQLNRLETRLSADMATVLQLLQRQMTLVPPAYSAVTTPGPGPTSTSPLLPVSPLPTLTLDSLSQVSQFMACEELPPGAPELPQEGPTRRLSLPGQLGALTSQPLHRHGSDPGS

| SMILES | hERG current change (%, negative = inhibition) at 10uM [%] |
| --- | --- |
| CCOC(=O)c1cc(C#N)c(N2CCN(c3ccc(OC)cc3)CC2)[nH]c1=O | -8.77 |
| COc1cc(OC)c(OC)cc1CNCCc1ccc(OC)c(OC)c1 | -6.55 |
| COc1ccccc1C(=O)NCC(=O)OC(C)C(=O)N(C)C1CCCCC1 (stereo not drawn) | 0.317 |
| O=C1OC(c2ccc(F)cc2)=C/C1=C\c1ccc([N+](=O)[O-])o1 | 20.1 |
| CCOc1ccc(NC(=O)CN(C)C(=O)c2ccc(N3CCOCC3)c([N+](=O)[O-])c2)cc1OCC | -19.1 |
| CCC(=NCc1ccccc1)C1=C(O)C(C(=O)OC)C(C)(C)CC1=O (stereo not drawn) | -17 |
| COc1ccccc1C(=O)NCC(=O)N1CCN(c2ncccn2)CC1 | 6.46 |
| COc1ccccc1NC(=O)C1(c2ccccc2)CCCC1 | 3.06 |
| C/C(=C\C(=S)Nc1ccccc1)Nc1ccccc1 | 22.4 |
| CC(=O)OC1CC[C@@]2(C)C(=CC(=O)C3C4CCC(OC(C)=O)[C@@]4(C)CCC32)C1 (stereo partly drawn) | 8.15 |
| Cc1cc(Nc2ccccc2C(=O)O)nc2nc3ccccc3c(=O)n12 | 2.04 |
| CC/C(=N\NC(=S)NC(C)C)c1ccc(OC(F)F)cc1 | -41.6 |
| O=C1C2C3C=CC(C3)C2C(=O)N1/N=C/c1cn(Cc2ccc(F)cc2)c2ccccc12 (stereo not drawn) | 5.84 |
| CN(CC(=O)Nn1cnnc1)S(=O)(=O)c1ccc(Br)cc1 | -7.55 |
| CCOC(=O)c1ccc(NC(=O)Cn2cnc(S(=O)(=O)N3CCCC3)c2)cc1 | 15.1 |
| Cc1c(NC(=S)N2CCN(c3cccc(Cl)c3)CC2)c(=O)n(-c2ccccc2)n1C | -8.99 |
| Cc1ccc2oc(C(=O)NC3CCS(=O)(=O)C3)cc(=O)c2c1 (stereo not drawn) | 27.9 |
| COc1ccc(N2C(=O)CC(N(C)CCc3ccc(OC)c(OC)c3)C2=O)cc1 (stereo not drawn) | 4.86 |
| Cc1ccc(-n2ncc3c(NCc4ccccc4)ncnc32)cc1 | 12.3 |
| CCC(=O)c1cc(F)c(N2CCN(S(=O)(=O)c3ccc(C)cc3)CC2)cc1C | -15 |
| O=C(CSc1ccccn1)Nc1nc2ccccc2s1 | 11.1 |
| COc1ccc(OC)c(NC(=O)N[C@@H](Cc2ccccc2)C(=O)O)c1 | 2.57 |
| Cn1cnnc1SCC(=O)Nc1ccc(Cl)c(S(=O)(=O)N2CCOCC2)c1 | 8.35 |
| Cc1ccccc1-c1nc(SCc2cccnc2)c2c(=O)n(C)c(=O)n(C)c2n1 | 10.5 |

Reference: publication PMC4336329 (PLoS ONE, 2015)
